# Results taken from PubChem BioAssay AID1468 (National Center for Advancing Translational Sciences (NCATS), 2008).
# Where “and” joins values, the source holds several entries; their conditions need not be identical. Identical values can stand only once. About 1,100 (0.39%) of roughly 280,000 compounds were called active. This list was built around the results that the source calls inconclusive (neither active nor inactive); the mix of calls is not that of the screen. The call rests on the fitted dose curve; in most records, active means well fitted inhibition curve with a large enough effect; inconclusive means small, poorly fitted or top-dose-only effect, or effect the other way; inactive means flat fitted curve, though single readings scatter. Potencies of inconclusive entries are doubtful fits and often do not repeat.
# Target: Microtubule-associated protein tau (Homo sapiens) (UniProt P10636)
# UniProt P10636, sequence (P10636 whole entry, looked up): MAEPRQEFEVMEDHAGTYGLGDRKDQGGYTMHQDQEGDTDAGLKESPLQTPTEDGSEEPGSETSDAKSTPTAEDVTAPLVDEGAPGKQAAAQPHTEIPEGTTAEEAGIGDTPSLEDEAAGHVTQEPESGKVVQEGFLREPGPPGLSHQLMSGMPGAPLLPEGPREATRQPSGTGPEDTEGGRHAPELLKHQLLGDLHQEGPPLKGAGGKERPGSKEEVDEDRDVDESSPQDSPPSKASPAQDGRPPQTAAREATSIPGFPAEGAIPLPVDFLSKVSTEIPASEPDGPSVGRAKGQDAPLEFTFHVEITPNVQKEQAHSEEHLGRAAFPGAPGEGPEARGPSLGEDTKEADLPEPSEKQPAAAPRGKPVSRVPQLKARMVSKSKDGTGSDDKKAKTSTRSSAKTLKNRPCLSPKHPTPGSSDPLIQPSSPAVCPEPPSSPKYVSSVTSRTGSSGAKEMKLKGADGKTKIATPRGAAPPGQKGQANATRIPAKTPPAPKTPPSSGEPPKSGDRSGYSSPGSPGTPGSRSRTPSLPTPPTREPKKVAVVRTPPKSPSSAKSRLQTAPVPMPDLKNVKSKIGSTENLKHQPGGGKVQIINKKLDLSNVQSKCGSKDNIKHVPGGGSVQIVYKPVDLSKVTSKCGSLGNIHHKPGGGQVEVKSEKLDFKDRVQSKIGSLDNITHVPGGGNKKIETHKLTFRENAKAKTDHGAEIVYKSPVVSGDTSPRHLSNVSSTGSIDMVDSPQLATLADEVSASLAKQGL
# Experiment: qHTS for Inhibitors of Tau Fibril Formation, Fluorescence Polarization; further: nearly all actives have a fitted effect of over 55% in size
# Conditions: K18 P301L tau heparin fibrillization, Alexa594 FP, 6 h; series mostly up to 57.7 µM
# Outline: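 Quantitative HTS format: compounds meet 15 uM recombinant K18 P301L tau and Alexa 594-tau tracer in 100 mM sodium acetate pH 7; 20 uM heparin triggers fibrillization at 37 C over 6 hr; FP gives the signal.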
# On the % scale 0 is the no-effect control and ±100 the full control effect; potency means the concentration at half of the fitted maximal effect; tags describe the fitted curve by direction and shape.
Compound,Potency,"activity, negative = inhibition"
CC/C=C\C/C=C\C/C=C\CCCCCCCC(=O)O,"inconclusive: 8.91 µM [inhibitor, single point] and inconclusive: 39.8 µM [inhibitor, single point] and inconclusive: 28.2 µM [inhibitor, partial curve]",
CCOC(=O)c1c(CC(C)C)csc1N,inactive,
Cc1ccc(NC(=O)CN2C(=O)c3cccnc3Oc3ccc(Cl)cc32)cc1,"inconclusive: 7.08 µM [activator, single point]",
Cc1ccccc1OCCSc1nc2ccc(NC(=O)c3cccc(F)c3)cc2s1,active: 14.1 µM,
COc1cc2ncc3c(-c4ccc(C)cc4)nn(-c4ccc(F)cc4F)c3c2cc1OC,"inconclusive: 11.2 µM [activator, partial curve]",
CN(C)CCCNc1cc(N2CCN(C3CCCCC3)CC2)c2noc3c2c1C(=O)c1ccccc1-3,"inconclusive: 25.1 µM [inhibitor, partial curve]",
COc1ccc(NC(=O)c2cc3c(s2)-c2c(C)cccc2OC3)cc1Cl,"inconclusive: 31.6 µM [inhibitor, single point]",
Cc1c(C(=O)COC(C)(C)C)[nH]c2ccccc12,"inconclusive: 1 µM [inhibitor, partial curve, poor fit]",
CC(=O)c1ccc(NC(=O)c2ccc3c(c2)N(Cc2cccc(Cl)c2)C(=O)c2ccccc2S3=O)cc1 (stereo unspecified),"inconclusive: 31.6 µM [inhibitor, partial curve]",
Cc1cc(C)c2ccc(NN)nc2c1O,inactive,
Oc1ccc(Cl)cc1-c1cc(-c2ccco2)[nH]n1,"inconclusive: 12.6 µM [inhibitor, partial curve, poor fit]",
COc1cc(O)c(C(=O)c2ccccc2)cc1O,active: 14.1 µM,
O=[N+]([O-])c1ccc2c(c1)N([O-])C1(CCCCC1)[N+]2=O,active: 11.2 µM,
Nc1nn(-c2ccccc2)nc1C(=O)OCc1ccc(Cl)cc1,"inconclusive: 22.4 µM [inhibitor, partial curve]",
COc1ccc(-c2nc3sc(CCNC(=O)C(=O)Nc4cccc(NC(C)=O)c4)c(C)n3n2)cc1,"inconclusive: 28.2 µM [inhibitor, single point]",
COc1c(C)cccc1C(=O)Nc1ccc(-c2nc3ccccc3s2)c(Cl)c1,"inconclusive: 3.55 µM [inhibitor, full curve]",
CCN(CC)CCCNC(=O)c1ccc(Cn2c(SCc3ccccc3)nc3cccnc32)cc1,"inconclusive: 2.82 µM [inhibitor, single point]",
COc1ccc(-c2nc3sc(CCNC(=O)c4ccco4)c(C)n3n2)cc1,inactive,
O=C(Nc1nc(-c2cccnc2)cs1)c1ccccc1Cl,"inconclusive: 39.8 µM [inhibitor, single point]",
CCCCn1c(=N)n(CCCOc2ccc(F)cc2)c2ccccc21,inactive,
Cc1ccc(C(=O)c2c[nH]cc2-c2ccccc2)cc1,inactive,
O=C(Nc1cccc(C(F)(F)F)c1)c1ccc2c(c1)nnn2C1CCCC1,"inconclusive: 28.2 µM [inhibitor, partial curve]",
CC1=NOC(=O)/C1=C\c1ccc(-c2ccc(Br)cc2C(=O)O)o1,"inconclusive: 20 µM [inhibitor, single point]",

Compound,Potency,"activity, negative = inhibition"
CC1CCN(CCc2nc3cc(NC(=O)Nc4ccccc4)ccc3n2C)CC1,inactive,
O=C(/C=C\c1ccc2c(c1)OCO2)Nc1c2c(nn1-c1ccc(Cl)cc1)CSC2,"inconclusive: 31.6 µM [inhibitor, partial curve]",
Cc1ccc(-n2cc(CNCCc3cscn3)c(-c3ccc(F)cc3)n2)cc1,"inconclusive: 35.5 µM [inhibitor, single point]",
O=C(N=Nc1c(O)[nH]c2ccccc12)c1cc(NS(=O)(=O)c2cccs2)cc(NS(=O)(=O)c2cccs2)c1,"inconclusive: 22.4 µM [inhibitor, partial curve]",
COCCn1c(SCC(=O)Nc2ccccc2C)nc2c(oc3ccccc32)c1=O,inactive,
COC(=O)c1cc2oc(C)cc2n1Cc1ccc(Br)cc1F,inactive,
COc1cccc(OC)c1C(=O)NC(=S)Nc1cccc(NC(=O)c2ccco2)c1,"inconclusive: 31.6 µM [inhibitor, partial curve]",
CC(=C/C(=O)O)/C=C/c1ccc(Cl)o1,"inconclusive: 22.4 µM [inhibitor, single point]",
COc1cc(Cl)c(C)cc1Nc1nc2ccccc2c2nnc(C)n12,inactive,
CCCCC#CC1C=CC(Oc2ccc(C(=O)OC)cc2)C(COC(=O)OCC)O1 (stereo unspecified),,inactive: -2.12% [at 11.6 µM]
COc1ccc(C2CC(=O)N3CN(C4CCCCC4)CSC3=C2C#N)c(OC)c1 (stereo unspecified),"inconclusive: 22.4 µM [inhibitor, partial curve]",
COc1ccc(Nc2nc3ccc(OC)cc3s2)cc1,inactive,
Nc1cccc2c1C(=O)N(C(=O)/C=C/c1cccc(F)c1)C2=O,"inconclusive: 14.1 µM [inhibitor, partial curve]",
COc1ccc(NC(=S)NC2CCCCCC2)c(OC)c1,inactive,
O=C1CCCC2[C@@H]3CCC[N@+]4([O-])CCC[C@H](CN12)C34 (stereo partly specified),"inconclusive: 0.631 µM [inhibitor, partial curve]",
CC(C)OCCCn1c(=NC(=O)c2ccncc2)c(C#N)cc2c(=O)n3ccccc3nc21,inactive,
COc1ccc(Nc2ncc3c(n2)CCN(Cc2ccccc2C)C3)c(OC)c1,"inconclusive: 39.8 µM [activator, single point]",
N=C(N)SCc1cn(-c2ccccc2)nc1-c1ccc(Br)cc1,"inconclusive: 10 µM [inhibitor, partial curve]",
Cc1cc(SCC(N)=O)nc(SCC(=O)c2ccccc2)n1,inactive,
COc1cc(C)nc(N2CCCC(C(=O)Nc3cccc(Cl)c3C)C2)n1 (stereo unspecified),inactive,
CCC(C)/C(C)=N/NC(=O)CSc1nc2ccccc2[nH]1 (stereo unspecified),inactive,
COc1ccc(CCN(C)C2CC(=O)N(c3ccccc3)C2=O)cc1OC (stereo unspecified),inactive,
COc1ccccc1CN(C)CC(=O)Nc1ccc(Cl)cc1F,"inconclusive: 5.62 µM [inhibitor, partial curve, poor fit]",
